Results taken from PubChem BioAssay AID602310 (National Center for Advancing Translational Sciences (NCATS), 2012).
Several values for one entry are separate records, joined by “and”; a condition that tells them apart may be missing. Identical values can stand only once. The whole screen tested about 410,000 compounds, of which about 310 (0.076%) were called active. The inconclusive results got no clear call from the source; some entries with a clear call stand among them for comparison. Calls come from the whole dose curve; as a rule, active = well fitted curve in the direction sought with a large enough effect; inconclusive = small, poorly fitted or top-dose-only effect; inactive = flat fitted curve, though single readings scatter. Potencies of inconclusive entries are doubtful fits and often do not repeat.
Note: nearly all actives have a fitted effect of over 60% in size.
Potency is the fitted concentration of half-maximal effect; tags give direction and shape of the fitted curve.

Each molecule was assayed against DNA dC->dU-editing enzyme APOBEC-3G (Homo sapiens) (UniProt Q9HC16) (assay: qHTS for Inhibitors of Vif-A3G Interactions: qHTS). Details: HeLa A3G-eYFP + Vif (tagged APOBEC3G with the HIV-1 protein that degrades it), YFP fluorescence, overnight; series mostly up to 46.1 µM.
UniProt Q9HC16, sequence (Q9HC16 whole entry, looked up): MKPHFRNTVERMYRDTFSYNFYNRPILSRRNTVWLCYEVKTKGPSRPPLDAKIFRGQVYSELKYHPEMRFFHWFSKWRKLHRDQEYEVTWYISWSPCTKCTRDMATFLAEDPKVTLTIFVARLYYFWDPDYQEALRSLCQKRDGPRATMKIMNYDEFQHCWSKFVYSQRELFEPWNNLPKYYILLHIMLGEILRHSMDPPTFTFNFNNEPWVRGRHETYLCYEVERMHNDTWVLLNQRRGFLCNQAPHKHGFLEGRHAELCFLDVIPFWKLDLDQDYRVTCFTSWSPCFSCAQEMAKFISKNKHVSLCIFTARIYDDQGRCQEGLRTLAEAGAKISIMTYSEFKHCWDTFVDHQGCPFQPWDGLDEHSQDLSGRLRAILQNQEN
Method in brief: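 Read-out is eYFP fluorescence (Ex 488/Em 500-530) from Vif-expressing HeLa A3G-eYFP cells; more signal means A3G escaped Vif-mediated degradation. Cells plated overnight, compound pinned in, incubated overnight at 37 deg C.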
With `CCN1CCN(c2ccc([N+](=O)[O-])cc2C(=O)c2ccc(Cl)cc2)CC1` the Potency was inconclusive: 31.6 µM [inhibitor, single point].
`Cc1nc(NCc2ccc3c(c2)OCO3)c2oc3ccccc3c2n1` was tested, and the Potency was “inactive”.
In the case of `O=C(Nc1cccc(-c2cn3ccccc3n2)c1)c1cccc(Cl)c1`, the Potency is reported as inconclusive: 28.2 µM [inhibitor, single point].
In the case of `O=C(COc1ccc2ccccc2c1)Nc1ccc(Cc2ccncc2)cc1`, the Potency is reported as “inactive”.
In the case of `COc1ccc(S(=O)(=O)N2CCCN(S(=O)(=O)c3ccc(OC)c(C)c3)CC2)cc1C`, the Potency is reported as inconclusive: 28.2 µM [inhibitor, single point].
With `Cc1ccc(-c2cnc3ccccc3n2)cc1C` the Potency was “inactive”.
`COc1cccc(/C=C2/CCC(CN(C)C)C2=O)c1` (configuration not stated) was tested, and the Potency was inconclusive: 10 µM [inhibitor, partial curve, poor fit].
With `COc1ccc(NC(=O)COC(=O)c2cc(OC)c(OC)cc2NC(=O)c2ccco2)cc1OC` the Potency was inconclusive: 10 µM [inhibitor, partial curve, poor fit].
For `NC(=O)c1c(NC(=O)c2cc3ccccc3o2)sc2c1CCC2`, the Potency was inconclusive: 20 µM [inhibitor, single point].
`COc1ccc2c(c1)c(=O)c(C(=O)c1ccc(F)cc1)cn2CC(=O)Nc1ccc2c(c1)OCO2` was tested, and the Potency was “inactive”.
With `N#C/C(=C/c1ccncc1)c1nc2ccccc2s1` the Potency was inconclusive: 35.5 µM [inhibitor, single point].
With `CN1C2CCC1/C(=C/c1cccn1C)C(=O)/C2=C\c1cccn1C` the Potency was inconclusive: 15.8 µM [inhibitor, partial curve, poor fit].
For `CC(=O)[C@@]1(O)Cc2c(O)c3c(c(O)c2[C@H](O[C@H]2C[C@H](N)[C@H](O)[C@H](C)O2)C1)C(=O)c1ccccc1C3=O`, the Potency was inconclusive: 2.24 µM [inhibitor, partial curve, poor fit].
`O=C(/C=C/c1ccc([N+](=O)[O-])o1)NNC(=O)c1ccc(F)cc1` was tested, and the Potency was inconclusive: 7.08 µM [inhibitor, full curve, poor fit].
For `Nc1nc2n[nH]nc2c(=O)[nH]1`, the Potency was inconclusive: 3.16 µM [inhibitor, full curve, poor fit] and inconclusive: 1.58 µM [inhibitor, full curve, poor fit].
`Cc1c(C(=O)Oc2cccc3cccnc23)oc2ccccc12` was tested, and the Potency was inconclusive: 25.1 µM [inhibitor, single point].
`CCOc1cc(C(=O)N/N=C/C2CC=CCC2)cc(OCC)c1OCC` (configuration not stated) was tested, and the Potency was inconclusive: 2.82 µM [inhibitor, full curve, poor fit].
For `CC(=O)c1ccc(NC2=C(N3CCOCC3)C(=O)c3ccccc3C2=O)cc1`, the Potency was inconclusive: 11.2 µM [inhibitor, partial curve, poor fit].
With `O=C(NCc1ccccc1Cl)[C@@H]1CCCN1S(=O)(=O)c1ccc(Cl)cc1` the Potency was “inactive”.
`Cc1c(Cl)cccc1-c1ccc(/C=C(\C#N)c2nc3ccccc3[nH]2)o1` was tested, and the Potency was inconclusive: 11.2 µM [inhibitor, partial curve, poor fit].
With `O=C(O)c1cc(N/N=C/c2ccc(OCc3ccccc3)cc2)ccc1Cl` the Potency was “inactive”.
With `O=C(CCN1CCc2ccccc2C1)c1ccc2c(c1)OCCO2` the Potency was “inactive”.
In the case of `O=Cc1cc2ccccc2nc1SCc1ccc(Cl)c(Cl)c1`, the Potency is reported as inconclusive: 2.24 µM [inhibitor, partial curve, poor fit].
`COc1ccc2nc(Nc3sc4c(c3C(N)=O)CCCC4)sc2c1` was tested, and the Potency was inconclusive: 17.8 µM [inhibitor, single point].
In the case of `O=C(O)c1ccc2c3c(ncnc13)-c1ccccc1C2=O`, the Potency is reported as “inactive”.
In the case of `COC(=O)C1=C(Nc2ccc(C)cc2)C=C(C)C(C(=O)OC)C1c1cccc(OC)c1` (configuration not stated), the Potency is reported as inconclusive: 6.31 µM [inhibitor, full curve, poor fit].
With `COc1cc2c(cc1OC)CN(c1nc(CN3CCOCC3)nc3sc4c(c13)CCCC4)CC2` the Potency was inconclusive: 28.2 µM [inhibitor, single point].
In the case of `CCSc1nnc(NC(=O)C2Cc3ccccc3CN2S(=O)(=O)CC)s1` (configuration not stated), the Potency is reported as “inactive”.
In the case of `COc1cc(NS(=O)(=O)c2cc(Br)cc3c2N(C(=O)C2CC2)CC3)cc(OC)c1`, the Potency is reported as “inactive”.
In the case of `Nc1c(C(=O)c2ccccc2)sc2nsc(SCCN3CCCC3)c12`, the Potency is reported as inconclusive: 6.31 µM [inhibitor, partial curve, poor fit].
With `O=C1CCCC/C1=C\Nc1ccc(S(=O)(=O)Nc2cnc3ccccc3n2)cc1` the Potency was inconclusive: 35.5 µM [inhibitor, single point].
With `Cc1ccc(/C=N/NC(=O)c2cc(-c3ccncc3)nc3ccccc23)o1` the Potency was inconclusive: 2.24 µM [inhibitor, full curve, poor fit].
For `Oc1ccccc1C1CC(c2cccs2)=NC(c2cccc(Br)c2)N1` (configuration not stated), the Potency was inconclusive: 35.5 µM [inhibitor, single point].
In the case of `COc1ccc(S(=O)(=O)N=Nc2c(O)[nH]c3ccccc23)cc1`, the Potency is reported as “inactive”.
`CCOC(=O)c1c(N)sc(C(=O)OCCOC)c1C` was tested, and the Potency was “inactive”.
In the case of `Cn1c(CNc2nc3ccccc3n2CCN2CCCCC2)nc2ccccc21`, the Potency is reported as “inactive”.
With `C/C(CCC(C)C)=N\Nc1ccc(S(N)(=O)=O)cc1[N+](=O)[O-]` the Potency was “inactive”.
`S=c1[nH]nc(-c2cc(-c3ccsc3)n[nH]2)n1-c1cccc2ccccc12` was tested, and the Potency was inconclusive: 15.8 µM [inhibitor, single point].
For `Cc1nc2c(C(=O)NCCc3ccc(Cl)cc3)cnn2c(C)c1Cc1ccc(F)cc1`, the Potency was inconclusive: 20 µM [inhibitor, partial curve, poor fit].
For `CCOC(=O)c1cnc2c(OC)cccc2c1Nc1ccc2c(c1)OCCO2`, the Potency was inconclusive: 10 µM [inhibitor, partial curve].
For `O=[N+]([O-])c1ccc(/C=N/N=C/c2ccc([N+](=O)[O-])o2)o1`, the Potency was inconclusive: 3.55 µM [inhibitor, full curve, poor fit].
In the case of `Cc1cc(Cl)n2c(nc3ccccc32)c1C#N`, the Potency is reported as inconclusive: 14.1 µM [inhibitor, partial curve, poor fit].
`Cc1ccc(C)c(C(=O)c2ccccc2NC(=O)c2ccccn2)c1` was tested, and the Potency was inconclusive: 12.6 µM [inhibitor, partial curve].
For `CC(=Nc1ccccc1O)c1sc2ccccc2c1O`, the Potency was inconclusive: 28.2 µM [inhibitor, single point].
`COc1ccc(C(C(=O)Nc2ccc(C(C)C)cc2)N(Cc2ccco2)C(=O)CC2NC(=O)NC2=O)cc1` (configuration not stated) was tested, and the Potency was “inactive”.
In the case of `COc1ccc(Br)cc1C1NC(c2ccc3c(c2)OCO3)=CC(c2cc(Cl)ccc2O)N1` (configuration not stated), the Potency is reported as “inactive”.
For `COCCCn1c(O)c(/C=C2\N=C(C#N)C(=Nc3ccc(C)cc3)O2)sc1=S`, the Potency was inconclusive: 15.8 µM [inhibitor, single point].
`CN1C(=O)c2cccc3c(N)ccc(c23)C1=O` was tested, and the Potency was inconclusive: 3.16 µM [inhibitor, single point].
With `Cc1ccc(OCc2nc(-c3ccc(C(=O)NCCc4ccc(S(N)(=O)=O)cc4)cc3)oc2C)cc1` the Potency was “inactive”.
`COCCCN=C(c1ccco1)n1c(=S)nc(-c2ccco2)n(CCCOC)c1=S` was tested, and the Potency was “inactive”.
For `CCOC(=O)CCS(=O)(=O)c1nc(-c2ccccc2)cc(C(F)(F)F)n1`, the Potency was inconclusive: 12.6 µM [inhibitor, partial curve, poor fit].
With `Cc1cc(C)c2nc(NC(=O)c3ccc([N+](=O)[O-])o3)sc2c1` the Potency was inconclusive: 14.1 µM [inhibitor, partial curve, poor fit].
For `CC(=O)Nc1ccc2c(c1)n(C)c(=O)n2C`, the Potency was “inactive”.
In the case of `O=S(=O)(Nc1ccccc1)c1ccc(Oc2ncc(C(F)(F)F)cc2Cl)cc1`, the Potency is reported as inconclusive: 28.2 µM [inhibitor, single point].
In the case of `O=C(NCCCN1CCCC1)c1cc(Sc2ccc(F)cc2)nc2ccccc12`, the Potency is reported as “inactive”.
With `Cc1ccc(Cl)cc1N1CCN(Cc2nc3ccsc3c(=O)[nH]2)CC1` the Potency was “inactive”.
With `CSc1ccc(CCNC(=O)c2ccc(-n3c(C)cc4c3CCCC4)cc2)cc1` the Potency was inconclusive: 25.1 µM [inhibitor, single point].
With `CC(=O)N1CCc2c(sc(NC(=O)CCS(=O)(=O)c3ccc(C)cc3)c2C#N)C1` the Potency was inconclusive: 22.4 µM [inhibitor, single point].
`N#Cc1c(C(F)(F)F)cc(-c2cccs2)nc1SCc1cccnc1` was tested, and the Potency was inconclusive: 10 µM [inhibitor, partial curve].
For `CCOc1cccc2sc(NC(=O)CCS(=O)(=O)c3ccccc3)nc12`, the Potency was inconclusive: 6.31 µM [inhibitor, partial curve, poor fit].
For `O=S(=O)(c1ccccc1)N1CCN(S(=O)(=O)c2ccccc2)C1`, the Potency was “inactive”.
For `Cn1nnnc1Sc1ncnc2scc(-c3cccc(C(F)(F)F)c3)c12`, the Potency was inconclusive: 14.1 µM [inhibitor, partial curve, poor fit].
In the case of `C(=N\Nc1nc2ccccc2[nH]1)/c1ccccc1`, the Potency is reported as “inactive”.
With `Cc1cccc(-n2nnnc2S(C)(=O)=O)c1` the Potency was inconclusive: 17.8 µM [inhibitor, single point].
With `N#C/C(=C\c1ccc(-c2cc(Cl)ccc2Cl)o1)C(=O)Nc1ccccc1C(=O)O` the Potency was “inactive”.
In the case of `Cc1cc(C)c(Cn2c(C(O)c3ccccc3)nc3ccccc32)c(C)c1` (configuration not stated), the Potency is reported as inconclusive: 11.2 µM [inhibitor, single point].
For `CCOC(=O)C(=Cc1ccc(-n2ccnc2)cc1)C(=O)OCC`, the Potency was inconclusive: 10 µM [inhibitor, partial curve, poor fit].
